IC50 is the fitted dose that halves viability relative to control wells, and lower means more sensitive; where the fit passes the top or lowest dose, that dose stands as a limit. AUC, from the same fit, is the share of area under the viability curve across the 256-fold dose range; it is 1 without any effect and falls as sensitivity rises.
compound: NC1(c2ccc(-c3nc4ccn5c(=O)[nH]nc5c4cc3-c3ccccc3)cc2)CCC1 [MK-2206]; experiment: Viability of human cancer cell lines after 72 h of drug (GDSC screen)
Description: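 Human cancer cell lines in 384-well plates, medium with 10% serum, drug for 72 h over a 256-fold dose range (nine 2-fold or five 4-fold steps up to the top dose). Adherent lines were fixed and stained with the nucleic acid dye Syto60, suspension lines read with resazurin; signal relative to control wells, capped at 0 and 100%. One two-parameter sigmoid per drug and line, fitted in a mixed model over all curves with the slope shared within a line.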

Question: “SK-MEL-31 (melanoma, adherent, top dose 4 µM)” was tested. Which AUC did it give?
Answer: 0.871

Question: What about the IC50 of the same cell line?
Answer: > 4000 nM

Question: What does the source list for “SK-MES-1 (lung squamous cell carcinoma, adherent, top dose 4 µM)”?
Answer: AUC: 0.902; IC50: > 4000 nM

Question: With “SK-MG-1 (glioma, adherent, top dose 4 µM)” as the cell line, how does the AUC read?
Answer: 0.803

Question: What about the IC50 of the same cell line?
Answer: 2020 nM

Question: For “SK-MM-2 (myeloma, suspension, top dose 4 µM)”, which AUC is on record?
Answer: 0.875

Question: And the IC50?
Answer: > 4000 nM

Question: Which results are given for “SK-N-AS (neuroblastoma, adherent, top dose 4 µM)”?
Answer: AUC: 0.938; IC50: > 4000 nM

Question: With “SK-N-FI (neuroblastoma, adherent, top dose 4 µM)” as the cell line, how does the AUC read?
Answer: 0.93

Question: What about the IC50 of the same cell line?
Answer: > 4000 nM

Question: Which results are given for “SK-N-SH (neuroblastoma, adherent, top dose 4 µM)”?
Answer: AUC: 0.813; IC50: 2130 nM

Question: Which AUC does the source give for “SK-OV-3 (ovary, adherent, top dose 4 µM)” here?
Answer: 0.764

Question: And the IC50?
Answer: 1810 nM

Question: Which AUC does the source give for “SK-PN-DW (Ewing sarcoma, adherent, top dose 4 µM)” here?
Answer: 0.758

Question: And the IC50?
Answer: 1440 nM

Question: For “SKG-IIIa (cervix, adherent, top dose 4 µM)”, which AUC is on record?
Answer: 0.832

Question: What about the IC50 of the same cell line?
Answer: 3880 nM

Question: “SKM-1 (haematopoietic neoplasm, suspension, top dose 4 µM)” was tested. Which AUC did it give?
Answer: 0.705

Question: What about the IC50 of the same cell line?
Answer: 1010 nM

Question: Which results are given for SKN (uterus, adherent, top dose 4 µM)?
Answer: AUC: 0.764; IC50: 1750 nM

Question: What does the source list for “SKN-3 (head and neck, adherent, top dose 4 µM)”?
Answer: AUC: 0.92; IC50: > 4000 nM

Question: With “SLVL (B-cell lymphoma, suspension, top dose 4 µM)” as the cell line, how does the AUC read?
Answer: 0.965

Question: And the IC50?
Answer: > 4000 nM

Question: SNB75 (glioma, adherent, top dose 4 µM) was tested. Which AUC did it give?
Answer: 0.838

Question: And the IC50?
Answer: > 4000 nM

Question: For “SNG-M (endometrium, adherent, top dose 4 µM)”, which AUC is on record?
Answer: 0.939

Question: And the IC50?
Answer: > 4000 nM

Question: “SNU-61 (large intestine, adherent, top dose 4 µM)” was tested. Which AUC did it give?
Answer: 0.895

Question: What about the IC50 of the same cell line?
Answer: > 4000 nM

Question: With “SNU-81 (large intestine, adherent, top dose 4 µM)” as the cell line, how does the AUC read?
Answer: 0.698

Question: And the IC50?
Answer: 1100 nM

Question: “SNU-182 (liver, adherent, top dose 4 µM)” was tested. Which AUC did it give?
Answer: 0.753

Question: What about the IC50 of the same cell line?
Answer: 1390 nM

Question: For “SNU-387 (liver, adherent, top dose 4 µM)”, which AUC is on record?
Answer: 0.688

Question: And the IC50?
Answer: 912 nM

Question: Which results are given for “SNU-407 (large intestine, adherent, top dose 4 µM)”?
Answer: AUC: 0.815; IC50: 2670 nM

Question: With “SNU-423 (liver, adherent, top dose 4 µM)” as the cell line, how does the AUC read?
Answer: 0.76

Question: And the IC50?
Answer: 1630 nM

Question: Which results are given for “SNU-449 (liver, adherent, top dose 4 µM)”?
Answer: AUC: 0.921; IC50: > 4000 nM

Question: “SNU-C1 (large intestine, suspension, top dose 4 µM)” was tested. Which AUC did it give?
Answer: 0.672

Question: What about the IC50 of the same cell line?
Answer: 953 nM

Question: What does the source list for “SNU-C2B (large intestine, adherent, top dose 4 µM)”?
Answer: AUC: 0.923; IC50: > 4000 nM

Question: Which results are given for “SNU-C5 (large intestine, adherent, top dose 4 µM)”?
Answer: AUC: 0.814; IC50: 2450 nM

Question: Which results are given for “SR (lymphoid neoplasm, suspension, top dose 4 µM)”?
Answer: AUC: 0.894; IC50: 3980 nM

Question: “ST486 (Burkitt lymphoma, suspension, top dose 4 µM)” was tested. Which AUC did it give?
Answer: 0.98

Question: And the IC50?
Answer: > 4000 nM

Question: What does the source list for “STS-0421 (soft tissue, adherent, top dose 4 µM)”?
Answer: AUC: 0.698; IC50: 997 nM

Question: “SU-DHL-4 (B-cell lymphoma, suspension, top dose 4 µM)” was tested. Which AUC did it give?
Answer: 0.788

Question: What about the IC50 of the same cell line?
Answer: 1260 nM

Question: With “SU-DHL-5 (B-cell lymphoma, suspension, top dose 4 µM)” as the cell line, how does the AUC read?
Answer: 0.57

Question: What about the IC50 of the same cell line?
Answer: 370 nM

Question: Which results are given for “SU-DHL-6 (B-cell lymphoma, suspension, top dose 4 µM)”?
Answer: AUC: 0.386; IC50: 132 nM

Question: What does the source list for “SU-DHL-8 (B-cell lymphoma, suspension, top dose 4 µM)”?
Answer: AUC: 0.988; IC50: > 4000 nM

Question: With “SU-DHL-10 (B-cell lymphoma, suspension, top dose 4 µM)” as the cell line, how does the AUC read?
Answer: 0.587

Question: What about the IC50 of the same cell line?
Answer: 404 nM

Question: “SU-DHL-16 (B-cell lymphoma, suspension, top dose 4 µM)” was tested. Which AUC did it give?
Answer: 0.605

Question: What about the IC50 of the same cell line?
Answer: 448 nM

Question: “SUIT-2 (pancreas, adherent, top dose 2 µM)” was tested. Which AUC did it give?
Answer: 0.946

Question: And the IC50?
Answer: > 2000 nM

Question: For “SUP-B8 (B-cell leukaemia, suspension, top dose 4 µM)”, which AUC is on record?
Answer: 0.815

Question: And the IC50?
Answer: 2160 nM

Question: Which AUC does the source give for “SUP-B15 (lymphoblastic leukaemia, suspension, top dose 4 µM)” here?
Answer: 0.836

Question: And the IC50?
Answer: 2500 nM

Question: With “SUP-HD1 (Hodgkin lymphoma, suspension, top dose 4 µM)” as the cell line, how does the AUC read?
Answer: 0.918

Question: What about the IC50 of the same cell line?
Answer: > 4000 nM

Question: For “SUP-M2 (anaplastic large cell lymphoma, suspension, top dose 4 µM)”, which AUC is on record?
Answer: 0.976

Question: And the IC50?
Answer: > 4000 nM

Question: With “SUP-T1 (T-cell lymphoblastic leukaemia, suspension, top dose 4 µM)” as the cell line, how does the AUC read?
Answer: 0.874

Question: And the IC50?
Answer: 3270 nM

Question: How did the AUC turn out when “SW48 (large intestine, adherent, top dose 4 µM)” was run?
Answer: 0.937

Question: And the IC50?
Answer: > 4000 nM

Question: What does the source list for “SW620 (large intestine, adherent, top dose 4 µM)”?
Answer: AUC: 0.986; IC50: > 4000 nM

Question: Which AUC does the source give for SW626 (ovary, adherent, top dose 4 µM) here?
Answer: 0.953

Question: And the IC50?
Answer: > 4000 nM

Question: What does the source list for “SW684 (fibrosarcoma, adherent, top dose 4 µM)”?
Answer: AUC: 0.968; IC50: > 4000 nM

Question: SW756 (cervix, adherent, top dose 4 µM) was tested. Which AUC did it give?
Answer: 0.876

Question: And the IC50?
Answer: > 4000 nM

Question: Which AUC does the source give for “SW780 (bladder, adherent, top dose 4 µM)” here?
Answer: 0.906

Question: What about the IC50 of the same cell line?
Answer: > 4000 nM

Question: Which results are given for “SW948 (large intestine, adherent, top dose 4 µM)”?
Answer: AUC: 0.942; IC50: > 4000 nM

Question: Which AUC does the source give for “SW954 (urogenital system, adherent, top dose 4 µM)” here?
Answer: 0.858

Question: What about the IC50 of the same cell line?
Answer: 3340 nM

Question: Which AUC does the source give for “SW962 (urogenital system, adherent, top dose 4 µM)” here?
Answer: 0.853

Question: What about the IC50 of the same cell line?
Answer: > 4000 nM

Question: What does the source list for “SW982 (soft tissue, adherent, top dose 4 µM)”?
Answer: AUC: 0.98; IC50: > 4000 nM

Question: Which results are given for “SW1271 (small cell lung carcinoma, adherent, top dose 4 µM)”?
Answer: AUC: 0.954; IC50: > 4000 nM

Question: For “SW1417 (large intestine, adherent, top dose 4 µM)”, which AUC is on record?
Answer: 0.93

Question: What about the IC50 of the same cell line?
Answer: > 4000 nM

Question: For “SW1573 (lung adenocarcinoma, adherent, top dose 4 µM)”, which AUC is on record?
Answer: 0.915

Question: What about the IC50 of the same cell line?
Answer: > 4000 nM

Question: Which AUC does the source give for “SW1710 (bladder, adherent, top dose 4 µM)” here?
Answer: 0.803

Question: What about the IC50 of the same cell line?
Answer: 2060 nM

Question: What does the source list for “SW1783 (glioma, adherent, top dose 4 µM)”?
Answer: AUC: 0.935; IC50: > 4000 nM

Question: “Saos-2 (osteosarcoma, adherent, top dose 4 µM)” was tested. Which AUC did it give?
Answer: 0.831

Question: And the IC50?
Answer: > 4000 nM

Question: SiHa (cervix, adherent, top dose 4 µM) was tested. Which AUC did it give?
Answer: 0.875

Question: What about the IC50 of the same cell line?
Answer: > 4000 nM

Question: What does the source list for “T84 (large intestine, adherent, top dose 4 µM)”?
Answer: AUC: 0.989; IC50: > 4000 nM

Question: Which results are given for T98G (glioma, adherent, top dose 4 µM)?
Answer: AUC: 0.86; IC50: 2950 nM

Question: Which AUC does the source give for “T-T (oesophagus, adherent, top dose 4 µM)” here?
Answer: 0.862

Question: And the IC50?
Answer: 3390 nM

Reference: the supplement of paper PMC4967469
